# Results from ChEMBL document CHEMBL1157539, “Thousands of chemical starting points for antimalarial lead identification” (Nature, 2010).
# The full ranking holds about 13,000 compounds; the median of “IFI” is about 4, and the highest 2% start at about 17. This is one part of the list.
# Assay: GSK_TCMDC: Inhibition Frequency Index (IFI). The number of non-kinase HTS assays where a compound showed > 50 % inhibition, expressed as a percentage of the number of such assays in which the compound was tested (-0 is zero)
# Type: functional
row,SMILES,IFI [%]
1,N#Cc1ccc(CN2CCC(Oc3ccc(NC(=O)c4ccco4)cc3Cl)CC2)cc1,1.56
2,O=C(Nc1cccc(-c2ccc(-c3nc4cc(F)ccc4[nH]3)cc2)c1)Nc1ccc(F)c(F)c1F,1.98
3,Cc1cc(NCCCCCCNc2cc(C)nc3c(C)cccc23)c2cccc(C)c2n1,3.65
4,COc1ccc2nccc([C@@H](O)CN3CCC(NCc4cc5c(Cl)cccc5[nH]4)CC3)c2c1,7.41
5,N#Cc1ccc(N2CCN(Cc3cccc(-c4ccc(-c5nc6cc(C(F)(F)F)ccc6[nH]5)cc4)c3)CC2)nc1,16.2
6,Cc1cc(Cl)c(Cl)cc1NC(=O)Nc1cccc(C(F)(F)F)c1,6.52
7,O=C(Nc1ccc2c(c1)CCN(C1CCC1)CC2)c1ccc(-n2ccnc2)cn1,1.46
8,COc1ccc(CNC2CCN(C)CC2)cc1-c1cccc(S(=O)(=O)NCc2ccccc2)c1,11
9,COc1ccc(S(=O)(=O)N(c2cc(Br)cc3c2OCC3)S(=O)(=O)c2ccc(OC)c(N3CCN(C)CC3)c2)cc1N1CCN(C)CC1,6.52
10,CCS(=O)(=O)Nc1ccc2[nH]cc(C3CCN(CCC4CCN(C(=O)/C=C/c5ccc(Cl)c(Cl)c5)CC4)CC3)c2c1,7.97
11,OC(CNCc1ccccc1Oc1ccccc1)c1cc(Br)cs1 (stereo unspecified),5.79
12,COc1ccccc1CN1CCC(NC(=O)c2ccc(-c3ccc(N(C)C)cc3)s2)CC1,14
13,Oc1ccc(Nc2nc(NCc3ccco3)c3ccccc3n2)cc1,8.7
14,O=C(Nc1cc(Cl)ccc1O)c1cc(-c2ccccc2O)no1,10.3
15,CC(=O)Nc1cccc(CNCc2ccc(-c3cnc(N4CCCC(c5ccccc5)C4)nc3)cc2)c1 (stereo unspecified),5.41
16,CN1CCC(NCc2cccc(-c3ccc(S(=O)(=O)NCc4ccccc4)cc3)c2)CC1,8.7
17,Cc1cc(=O)c(-c2ccc(OCCSc3ccc(C(F)(F)F)cn3)cc2)c(C)[nH]1,4.55
18,COc1cccc(C(=O)NC(c2ccccc2OC)c2cc(Cl)c3cccnc3c2O)c1 (stereo unspecified),3.45
19,OCC1CCN(Cc2cccc(-c3ccc(-c4nc5cc(F)ccc5[nH]4)cc3)c2)CC1,-0
20,COc1cc2nc(N3CCC(CNC(=O)c4ccc(-c5ccc(C(=O)N(C)C)cc5OCCN(C)C)cc4)CC3)nc(N)c2cc1OC,-0
21,Cc1cccc2nc(-c3ccc(-c4cccc(NC(=O)c5cncn5C)c4)s3)[nH]c12,3.6
22,CC(C)c1cccc(OCC2CCN(c3ccc(C(=O)Nc4ccccc4)cn3)CC2)c1,1.96
23,Cc1cc(-c2ccc(CNCc3ccsc3)cc2)ccc1S(=O)(=O)NCCN1CCCC1,15.4

row,SMILES,IFI [%]
1,CS(=O)(=O)CCNc1cc(N2CCc3ncnc(Nc4ccc(OCc5cccc(F)c5)c(Cl)c4)c3C2)ncn1,4.44
2,COc1ccc2[nH]c(C)cc(=NN=Cc3ccc(Cl)cc3)c2c1,6.11
3,COc1ccc2nccc([C@@H](O)CN3CCC(NC(=O)c4cccc(C(=O)c5ccccc5)c4)CC3)c2c1,3.6
4,CC(C)C(=O)NC(NC(=S)Nc1ccc(Br)cc1)C(Cl)(Cl)Cl (stereo unspecified),1.56
5,Cc1cc2nc(-c3ccc(C(=O)NCCCc4ccccc4)cc3)[nH]c2cc1C,1.52
6,Cn1nccc1C(=O)NCCNCc1ccc(-c2ccc(-c3nc4cc(F)ccc4[nH]3)cc2)cc1,8.91
7,CN1CCN(c2ccnc3ccc(NC(=O)Nc4ccc(-c5ccccc5)cc4)cc23)CC1,-0
8,Cc1cc(NCCCCCCCCNc2cc(C)nc3ccccc23)c2ccccc2n1,3.05
9,Cc1ccc2c(OCCN3CCC(Cc4ccc5c(c4)NC(=O)CO5)CC3)cc(F)cc2n1,2.86
10,CCCCCCNC(=N)c1ccc2[nH]c(-c3ccc(O)cc3)nc2c1,0.74
11,COc1ccccc1CN1CCC(CNC(=O)c2cc(-c3cccc(C(F)(F)F)c3)cs2)C1 (stereo unspecified),12.5
12,O=C1Nc2cccc3c2C1(CCCCCN1CCC(c2c[nH]c4ccncc24)CC1)CCC3 (stereo unspecified),3.6
13,COc1cccc(-c2ccc(C(=O)NC3CCN(Cc4ccc(N(C)C)cc4)CC3)s2)c1,7.02
14,CCOC(=O)N1CCN(CCCNc2c3ccc(Cl)cc3nc3ccc(OC)cc23)CC1,5.67
15,O=C(NCCCN1CCC(Cc2ccccc2)CC1)c1cc2c(Cl)nc3ccccc3c2s1,10.5
16,COc1ccc(CN2CCC(C(=O)Nc3cccc(-c4cccc(Cl)c4)c3)CC2)cc1O,13.9
17,CN1CCCC1CCCOC(=O)c1ccc(N)cc1 (stereo unspecified),-0
18,CN(c1ccc2c(c1)nc(NC(=O)C1(c3cc(F)ccc3F)CC1)n2C)c1ccnc(Nc2cccc(CS(C)(=O)=O)c2)n1,3.85
19,Cc1ccc2c(c1)c(C1CCN(C(=O)c3ccc([N+](=O)[O-])o3)CC1)cn2C,4.35
20,Cc1cc(NC2CCN(CC3CCCCC3)CC2)nc(Nc2ccccc2Cl)n1,3.57
21,CCN(CC)CCCSc1ccc(-c2ccc(SCCCN(CC)CC)cc2)cc1,6.47
22,COc1ccc(OC)c(-c2ccc(O)c(CNCC(C)c3ccccc3)c2)c1 (stereo unspecified),8.57
23,CN(C)CCNc1cc(-c2ccc3ccccc3c2)nc2ccccc12,3.91

row,SMILES,IFI [%]
1,COc1ccc2nccc([C@@H](O)CN3CCC(NCc4nc5c(F)cccc5[nH]4)CC3)c2c1,1.38
2,O=C(/C=C/c1cccc(C(F)(F)F)c1)NCCCCCN1CCC(c2c[nH]c3ccccc23)CC1,9.09
3,COc1ccc(OC)c(CC2c3ccc(Br)c(O)c3CCN2C)c1 (stereo unspecified),2.17
4,COc1cccc(NC(=O)Nc2ccc(Nc3nc(C)cc(N(C)C)n3)cc2)c1,12
5,NC(Cc1cccc(I)c1)C(=O)NCC1CCCO1 (stereo unspecified),-0
6,O=C(Nc1cc(C(F)(F)F)cc(C(F)(F)F)c1)N1CCC(CCN2CCC(c3c[nH]c4ccccc34)CC2)CC1,3.6
7,O=C(NCC1CCC1)c1cnc(Nc2cccc(Cl)c2)nc1N1CCC1,-0
8,CC(=O)Nc1ccc(S(=O)(=O)Nc2c(C)cc(Cc3cnc(N)nc3N)cc2C)cc1,1.46
9,COc1cc(-c2nc(-c3ccccc3)c(-c3ccccc3)[nH]2)ccc1OCCN(C)C,3.65
10,COc1ccccc1CCNc1nc(C)cc(N[C@@H](CC(C)C)C(=O)NCc2cccs2)n1,10.3
11,NCCNS(=O)(=O)c1ccc(-c2ccnc3[nH]c(-c4ccncc4)cc23)cc1,3.13
12,Nc1cc(-c2ccc(Br)cc2O)nc2ccccc12,8.21
13,O=C(/C=C/c1ccc(Cl)c(Cl)c1)NCCCCCN1CCCC(CNC(=O)/C=C/c2ccccc2)C1 (stereo unspecified),8.33
14,Oc1cccc(Nc2ccnc3cc(-c4ccncc4)ccc23)c1,4.41
15,COc1ccc(-c2ccc(NC(=O)c3cccc(Cl)c3)cc2)cc1CNC(C)C,3.96
16,Cn1cncc1CCN(Cc1ccc(-c2ccc(C(F)(F)F)cc2)cc1)C(=O)Cn1c(CCc2cccc(F)c2F)cc(=O)c2cccnc21,4.41
17,CC[C@H](C)CNC(=O)c1cncc(-c2cccc(CNC3Cc4ccccc4C3)c2)c1,7.58
18,Cc1nc2ccc(Nc3nccc(-c4c(-c5cccc(NC(=O)c6c(F)cccc6F)c5)nn5ccccc45)n3)cc2nc1C,1.43
19,COc1ccc2[nH]ccc(=NN=Cc3ccccc3Cl)c2c1,5.15
20,CCN(CC)CCCC(C)Nc1c2ccc(Cl)cc2nc2ccc(OC)cc12 (stereo unspecified),5.13
21,O=C(/C=C/c1ccc(C(F)(F)F)cc1)NCCCCCN1CCC(c2c[nH]c3ccccc23)CC1,7.86
22,c1ccc2[nH]c(-c3ccc(-c4ccc(CN5CCN(c6ccncc6)CC5)cc4)s3)nc2c1,3.28
23,Cc1cc(N2CCCCC2)nc2ccc(NC(=O)c3cncc(Br)c3)cc12,3

row,SMILES,IFI [%]
1,O=C(CCN(Cc1ccco1)c1nc(-c2ccc(F)cc2)nc2ccccc12)NC1CC1,2.38
2,O=C(/C=C/c1ccc(Cl)c(Cl)c1)NCCCCCN1CCCN(C(=O)Nc2cccc(F)c2)CC1,3.36
3,CN(C)Cc1ccc(-c2cc3c(Nc4ccc(OCc5cccc(F)c5)c(Cl)c4)ncnc3s2)[nH]1,6.47
4,CC(C)c1cc(Oc2c(I)cc(CCCc3ncc[nH]3)cc2I)ccc1O,16.4
5,O=C(Nc1ccc(Cl)cc1)c1ccc(CN2CCCN(Cc3ccsc3)CC2)cc1,11.5
6,COc1cc(NC(=O)c2sc(-c3ccc(Cl)cc3)cc2Cl)ccc1OCCN1CCCC1,12
7,CN(C)C=Nc1ccc(OCCCCCCOc2ccc(N=CN(C)C)cc2)cc1,0.74
8,CCc1ccc(NC(=O)c2ccc(CN3CCCN(CCC(C)C)CC3)cc2)cc1,6.4
9,Cc1nnnn1-c1ccc(C(=O)N2CCC3(CC2)CN(Cc2ccc(Cl)c(Cl)c2)C(=O)O3)cc1,0.69
10,CCOc1cc(Cc2cnc(N)nc2N)cc(OC)c1OC,2.17
11,N=C(N)c1ccc2[nH]c(SCc3ccccc3)nc2c1,0.94
12,CCCCC(O)c1cc(O)c2c(c1)OC(C)(C)CC2C1=CCN(Cc2ccc3ccccc3c2)CC1 (stereo unspecified),10.9
13,CCc1c[nH]c2c(N(c3ccccc3)S(C)(=O)=O)cc(C(=O)N[C@@H](Cc3ccccc3)[C@H](O)CNCc3cccc(C(F)(F)F)c3)cc12,6.72
14,OC(CNc1ccnc(Nc2ccccc2)n1)c1cccc(C(F)(F)F)c1 (stereo unspecified),12.2
15,O=C(Nc1ccc(Cl)cc1)c1ccc(CN2CCCN(Cc3cccc(Cl)c3)CC2)cc1,8.66
16,Cn1c(N=C2NC3(c4ccccn4)NC(=Nc4nc5ccccc5n4C)NC3(c3ccccn3)N2)nc2ccccc21 (stereo unspecified),3.6
17,Cc1ccc2[nH]c(Nc3ccc(Nc4nc5cc(C)ccc5[nH]4)c(C)c3)nc2c1,2.29
18,CNC(=O)COc1ccc(Nc2nnc(-c3ccc(C)c(S(=O)(=O)NCC4CCCO4)c3)c3ccccc23)cc1 (stereo unspecified),1.34
19,NS(=O)(=O)c1cncc(-c2ccc3nccc(-c4cn[nH]c4)c3n2)c1,2.78
20,Cc1[nH]c(C)c(-c2ccc(OCc3ccccc3)cc2)c(=O)c1Br,-0
21,CS(=O)(=O)CCNCc1nc(-c2ccc3c(Nc4ccc(F)c(O)c4)ccnc3c2)cs1,3.73
22,Cc1nc2nc(N)nc(N)c2c(C)c1Cc1cccc(C(N)=O)c1,1.46
